Test results: PMC4336329 (PLoS ONE, 2015)
Hit rate of the full screen: of about 310,000 compounds, about 14,000 (4.5%) showed an effect of 50% or more. Effects have a minus sign here. This is one part of the list.

Molecular target: human ether-à-go-go-related gene (hERG) potassium channel (human, UniProt Q12809)
Assay: primary screen, population patch clamp on CHO cells stably expressing hERG
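Further: peak tail current of the secondary pulse compared with the same well before compound.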

Chain of human ether-à-go-go-related gene (hERG) potassium channel (Q12809 whole entry, looked up): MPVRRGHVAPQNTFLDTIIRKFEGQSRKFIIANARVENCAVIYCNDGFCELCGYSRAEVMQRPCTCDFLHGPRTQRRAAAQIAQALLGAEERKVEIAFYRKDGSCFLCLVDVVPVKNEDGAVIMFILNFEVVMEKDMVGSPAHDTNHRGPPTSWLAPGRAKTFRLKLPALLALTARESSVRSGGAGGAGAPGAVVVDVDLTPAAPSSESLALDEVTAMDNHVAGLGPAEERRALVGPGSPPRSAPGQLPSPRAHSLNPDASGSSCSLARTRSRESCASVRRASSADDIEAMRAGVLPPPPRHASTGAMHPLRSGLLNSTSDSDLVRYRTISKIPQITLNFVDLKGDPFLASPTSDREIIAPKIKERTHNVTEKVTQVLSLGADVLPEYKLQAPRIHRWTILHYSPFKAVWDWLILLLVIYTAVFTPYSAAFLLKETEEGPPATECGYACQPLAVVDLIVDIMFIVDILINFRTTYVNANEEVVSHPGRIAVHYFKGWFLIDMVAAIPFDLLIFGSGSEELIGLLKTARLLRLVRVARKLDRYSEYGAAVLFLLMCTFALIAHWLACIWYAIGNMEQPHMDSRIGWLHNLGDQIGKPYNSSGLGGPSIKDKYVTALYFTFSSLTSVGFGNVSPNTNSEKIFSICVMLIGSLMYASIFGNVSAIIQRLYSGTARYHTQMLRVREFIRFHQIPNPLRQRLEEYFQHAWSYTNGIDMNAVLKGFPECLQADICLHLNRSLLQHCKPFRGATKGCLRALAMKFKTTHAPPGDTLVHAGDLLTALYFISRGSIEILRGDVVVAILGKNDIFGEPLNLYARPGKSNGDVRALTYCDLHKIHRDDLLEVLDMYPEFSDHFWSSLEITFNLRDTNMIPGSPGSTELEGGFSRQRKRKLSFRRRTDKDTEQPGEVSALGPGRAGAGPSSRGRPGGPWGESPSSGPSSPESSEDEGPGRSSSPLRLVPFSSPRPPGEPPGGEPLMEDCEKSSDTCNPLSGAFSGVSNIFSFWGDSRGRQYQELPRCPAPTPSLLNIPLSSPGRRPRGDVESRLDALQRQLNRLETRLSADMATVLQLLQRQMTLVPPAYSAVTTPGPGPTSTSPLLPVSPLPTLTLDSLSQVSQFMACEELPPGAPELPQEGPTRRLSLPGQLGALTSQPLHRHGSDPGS

Compound	hERG current change (%, negative = inhibition) at 10uM [%]
COC(=O)C1(S(=O)(=O)C2(C(=O)OC)CCCC2)CCCC1	-1.71
O=C(Nc1nccs1)c1cc2sccc2n1Cc1ccc(Cl)cc1	-2.4
CC(C)(CO)NC12CC3CC(CC(C3)C1)C2	-1.97
CC(=O)NNC(=O)CN1C(=O)CN=C(c2ccccc2)c2cc(Br)ccc21	13.1
CC(C)(C)CC(=O)Nc1cc(S(=O)(=O)N2CCOCC2)ccc1N1CCCC1	12.8
Cc1ccc(CNC(=O)Nc2ccc(OC(F)(F)F)cc2)n1C	11.3
O=C(/C=C/c1ccccc1[N+](=O)[O-])N1CCCCC1	-2.55
O=C(COC(=O)c1cnccn1)NC(=O)c1ccccc1	-7.38
COc1cc(C(=O)O/N=C(\N)c2cccc([N+](=O)[O-])c2)cc(OC)c1OC	10.3
N#C/C(C(=O)NCc1ccccc1)=C1/SC(Cc2ccc(Cl)cc2)C(=O)N1c1ccccc1 (stereo not drawn)	14.4
Nn1c(SCC(=O)Nc2ccccc2F)nnc1C1CCCCC1	8.64
COc1cc(/C=C/C(=O)NC(C)CCc2ccccc2)cc(OC)c1OC (stereo not drawn)	-1.32
Cc1ccccc1/C=C/C(=O)N1CCOCC1	8.37
O=C(NCCc1cccs1)c1cccs1	-7.09
Cc1ccc(C(=O)NCc2ccccc2F)cc1S(=O)(=O)N1CCCC1	4.12
CCOC(=O)C1CCN(C(=O)COC(=O)Cc2ccc(Cl)cc2)CC1	-22.7
CCOc1ccc(OC(=O)C(CCS(C)(=O)=O)N2C(=O)c3ccccc3C2=O)cc1 (stereo not drawn)	-11.9
Cl.NCCCC[C@@H](C(=O)N1CCNCC1)n1cc(CCC(=O)O)nn1	37.1
CN(Cc1c(C(=O)N/N=C/c2ccccc2)nnn1-c1nonc1N)c1ccccc1	9.3
CCc1ccccc1NC(=O)CCNC(=O)Cn1ccc2ccccc2c1=O	21.2
COc1ccc(C/C(N)=N/OC(C)=O)cc1OC	7.62
O=C(O)CSc1nnc(COc2cccc3ccccc23)o1	19.2
COc1ccc(CCNS(=O)(=O)c2cnc(Cl)c(Br)c2)cc1OC	4.79

Compound	hERG current change (%, negative = inhibition) at 10uM [%]
CC(=O)NCCCC(=O)NN1C(=S)N(Cc2ccccc2)C(=O)C1CC(=O)Nc1cccc(C)c1 (stereo not drawn)	8.8
O=C1/C(=C/c2ccco2)SC(=S)N1C1CCS(=O)(=O)C1 (stereo not drawn)	6.47
CCOc1cc(/C=N/NC(=O)c2nn(C)cc2Br)ccc1OCc1ccccc1Cl	-14.7
COc1cc(OC)c(OC)cc1/C=C1\Oc2cc(OS(C)(=O)=O)ccc2C1=O	2.35
CCCCN1C(N)=NC[C@@H]1CC1CCCCC1	-11.5
OCC1(CCOc2ccccc2)CCN(CCCn2cccn2)CC1	-73.1
O=C(c1ccc2c(c1)OCCO2)C1CCN(C(=O)c2ccc(F)cc2)CC1	-13
CC1CN(C)C(C)c2c1oc1ccc([N+](=O)[O-])cc21 (stereo not drawn)	-37.9
CCOc1ncccc1C(=O)NCc1ccccc1Cl	2.81
Cc1cc(=O)n2nc(N3CCC(C(=O)NCc4cccc(Cl)c4)CC3)sc2n1	-43.7
Cc1ccc(-c2nc(S(=O)(=O)c3ccc(C)cc3)c(N3CCOCC3)o2)cc1	-32.2
CC(C)CCNC(=O)CN1C(=O)NC(c2ccccc2)(c2ccccc2)C1=O	-3.24
Cc1c(C#N)c(N)nc2c3c(sc12)NC(=O)CC3c1ccc(F)cc1 (stereo not drawn)	10.8
COc1cc2c(cc1OC)C(c1cccc(Cl)c1)CC(=O)N2 (stereo not drawn)	0.82
CCCCCCOc1ccc(/C(N)=N/O)cc1	5.59
N#C/C(=C/c1ccc(Sc2nc3ccccc3[nH]2)o1)c1cccc(F)c1	-8.39
CC(=O)N1c2ccccc2C(=O)C1N1CCCCC1 (stereo not drawn)	-4.1
CCCCOc1ccc(C(=O)N2CCNC(=O)C2)cc1	17.6
O=C(O)/C=C/C(=O)Nc1ccc(-n2ccc(C(F)(F)F)n2)cc1	7.01
O=C(CCNc1ccccc1)c1ccc2c(c1)OCO2	-2.14
CCOC(=O)C1CCN(C(=O)c2cc3c(=O)n4ccccc4nc3s2)CC1	-6.6
CCCCC1=CC2=C(c3ccco3)C(=O)C(C)(OC(=O)c3ccc(OC)cc3)C(=O)C2=CN1Cc1ccc2c(c1)OCO2 (stereo not drawn)	-4.39
